The source of these data is ChEMBL document CHEMBL4888484, “Replenishing the malaria drug discovery pipeline: Screening and hit evaluation of the MMV Hit Generation Library 1 (HGL1) against asexual blood stage Plasmodium falciparum ,using a nano luciferase reporter read-out” (2022).

Hit rate of the full screen: of about 150,000 compounds, about 540 (0.36%) showed an effect of 50% or more. Some of the results follow.

The subject of this assay is Plasmodium falciparum. Kind of assay: Primary screen in NF54 nanoGlo assay, in single point, at 2uM, 72h; a lower Z score goes with more inhibition. The class given is functional, Erythrocyte. The settings on record: timepoint 72 hour.
As a reminder, the % Inhibition is the change of the read-out against control, counted positive when it falls. Turning to `O=C(CCn1cncn1)N1C[C@@H](c2ccc(F)cc2)[C@@H]2[C@H]1C1CCN2CC1`, the “% Inhibition” value was determined as 4% and the Z score is recorded as -0.35.

`O=C(Cc1ccc(-c2ccccc2)cc1)N1CCC2(CC1)OCCO2`: the “% Inhibition” value is 14% and the Z score is -1.8.

Consider `CC(C)n1cncc1CN1CC2(CC(F)C2)C1`, for which the “% Inhibition” value is 9% and the Z score is listed as -0.95.

Turning to `N#Cc1ccc(N2C[C@H](c3ccccc3)[C@@H]3[C@H]2C2CCN3CC2)nc1`, the “% Inhibition” value is on record as -11% and the Z score amounted to 1.41.

On to `C[N+]12CCC(CC1)[C@@H](C(O)(c1cccc(Cl)c1)c1cccc(Cl)c1)C2`, for which the “% Inhibition” value was determined as 35% and the Z score is reported as -6.68.

`c1cc2c(c(-c3nccc4ccccc34)c1)CCNC2`: the “% Inhibition” value is listed as -1% and the Z score was 0.15.

For the compound `Cc1c(C(=O)NCC2(C3CC3)CC2)cnn1C1CCOCC1`, the “% Inhibition” value came out at 4% and the Z score was -0.81.

As to `Cc1nnc(N2CCC[C@H]2c2cncc(Br)c2)nc1C`, the “% Inhibition” value is given as 5% and the Z score is given as -0.88.

Consider `Cn1nc(C(=O)N2C[C@@H]3NCCO[C@H]3C2)c2ccccc2c1=O`, for which the “% Inhibition” value is -11% and the Z score was 2.25.

For the compound `CN1CCN(c2ccc3ncc(=O)n(C)c3n2)CC1`, the “% Inhibition” value is listed as -3% and the Z score was found to be 0.57.

As for `COc1ccc(S(=O)(=O)N2CCC3CCC(C2)N3C(C)C)cn1` (centres undefined), the “% Inhibition” value is reported as -1% and the Z score was 0.13.

For `Cn1cccc1C(=O)C(=O)N1C[C@@H](c2cc(F)cc(F)c2)[C@@H]2[C@H]1C1CCN2CC1`, the “% Inhibition” value is on record as -6% and the Z score is 0.95.

In the case of `CC(C)(C)c1ccc(OC(=O)NC(C(F)(F)F)C(F)(F)F)cc1`, the “% Inhibition” value was -1% and the Z score is 0.24.

As to `C[C@@H](Cc1cccc(Br)c1)NCCN1C(=O)CNC1=O`, the “% Inhibition” value stood at 3% and the Z score is -0.31.

With `Cc1cc(CC(=O)N(C)CCN(C)C2CC2)on1`, the “% Inhibition” value was -1% and the Z score came to 0.06.

As to `O=C(Nc1ccc(Cl)c(Cl)c1)[C@@H]1CCCCN1CCn1c(=O)oc2cccnc21`, the “% Inhibition” value is listed as -9% and the Z score was determined as 1.19.

As to `COC(c1ccccc1)C(C)NCc1sc(C)nc1C` (centres undefined), the “% Inhibition” value is recorded as -10% and the Z score is recorded as 1.32.

Take `Cn1cncc1CN1C[C@H]2CC[C@@H](C1)N(Cc1ccccn1)C2`: the “% Inhibition” value is recorded as -2% and the Z score came to 0.23.

As for `Cc1nc2ccccc2c(=O)n1N1C[C@@]1(C)C#Cc1ccccc1`, the “% Inhibition” value is -39% and the Z score is 4.57.

In the case of `O=C(Oc1cccc2cccnc12)N1CCCCC1`, the “% Inhibition” value came to 4% and the Z score is listed as -0.73.

As for `CC(C)CN(C1CCN(C)CC1)C1CN(C(=O)Cc2c[nH]c3ccccc23)C1`, the “% Inhibition” value is recorded as 4% and the Z score is listed as -0.7.

`CCOc1cc(=O)c(C(=O)N2CCC3(CC2)OCCO3)nn1-c1ccc(F)c(F)c1`: the “% Inhibition” value was found to be 28% and the Z score is recorded as -3.68.

`COCc1ccc(C(=O)N2C[C@H](c3ccccc3)[C@@H]3[C@H]2C2CCN3CC2)o1`: the “% Inhibition” value is -2% and the Z score is recorded as 0.2.

On to `Cc1noc([C@@H]2CN(C(=O)Cc3ccccc3C)CCCN2CC(C)C)n1`, for which the “% Inhibition” value is reported as -2% and the Z score stood at 0.4.

With `CCn1c(=O)oc2cc(NS(=O)(=O)c3cc(C)cc(C)c3C)ccc21`, the “% Inhibition” value is given as 28% and the Z score was -3.81.

With `Cc1cc(C(=O)N2CCC(c3n[nH]c(=O)o3)CC2)c(C)cc1Cl`, the “% Inhibition” value is -5% and the Z score was 0.7.

For the compound `CC1(C)CCc2[nH]c(=O)c(C(=O)N3CCC(Nc4ccccc4Cl)CC3)cc2C1`, the “% Inhibition” value is reported as -4% and the Z score is on record as 0.49.

On to `Cc1cc(C)c(CNc2ccc(C#N)cn2)c(=O)[nH]1`, for which the “% Inhibition” value is given as -8% and the Z score came to 1.16.

Turning to `Cc1nonc1-c1nc(-c2c(C)ncc3c2CCNC3)no1`, the “% Inhibition” value is given as -5% and the Z score worked out at 0.69.

As to `CCCC(NC1CCN2CCCC2C1)c1ccccn1` (centres undefined), the “% Inhibition” value is listed as -11% and the Z score is 1.57.

`COCCCCN1CCN(C(=O)Cc2c[nH]c3ccccc23)CC1`: the “% Inhibition” value is on record as -8% and the Z score is listed as 0.83.

In the case of `CC1CCN2c3cc(Cl)ccc3CC3(C(=O)N(C)C(=O)N(C)C3=O)C2C1` (centres undefined), the “% Inhibition” value is given as -11% and the Z score turned out to be 2.07.

On to `O=c1[nH]c2cc(-c3cc(F)cc4cccnc34)ccc2o1`, for which the “% Inhibition” value was -7% and the Z score stood at 1.26.

`Cn1nnc2c(N3CC4CC(C3)c3cccc(=O)n3C4)ncnc21` (centres undefined): the “% Inhibition” value is listed as -11% and the Z score was 1.71.

For `Cc1ccnc(N2CCN(C)C3(CCCCC3)C2)n1`, the “% Inhibition” value worked out at 0% and the Z score is given as -0.03.

For `COCCc1noc(CN[C@@H](C)Cn2cncn2)n1`, the “% Inhibition” value is reported as -10% and the Z score was determined as 1.77.

With `CCc1cccc(NC(=O)CC2CCN(S(=O)(=O)c3ccc4c(c3)oc(=O)n4C(C)C)CC2)c1`, the “% Inhibition” value is -5% and the Z score came to 0.47.

Regarding `C[C@@H](Cc1ccc2ccccc2c1)NC1CCN(S(C)(=O)=O)CC1`, the “% Inhibition” value is listed as 0% and the Z score is given as -0.03.

For `Cn1cc(C(F)(F)F)nc1[C@H]1CCCNC1`, the “% Inhibition” value is listed as -3% and the Z score came to 0.43.

Regarding `OC1CC2CCC(C1)N2Cc1ccoc1` (centres undefined), the “% Inhibition” value was -8% and the Z score was 1.32.

For the compound `CC(C)n1c(=O)[nH]c2c(C(=O)N3CCC4(CC3)OCCO4)snc2c1=O`, the “% Inhibition” value is on record as -14% and the Z score is given as 2.31.

Take `Cc1nc(-c2ccco2)cc([C@H]2CN3CC[C@H]2C[C@@H]3CNC(=O)NC2CCCCC2)n1`: the “% Inhibition” value turned out to be 3% and the Z score was -0.56.
